# Publication PMC9911399, “Two distinct binding modes provide the RNA-binding protein RbFox with extraordinary sequence specificity”
# Residue numbers refer to the chain shown, from its start. Some of the results follow.
# B1: ACAGCGC (DNA:RNA)
# RNA: GGGAGACCGGAAUUCAGAUUGUCCACAGCGCUUAAAUCCCGUCGUAGCCACCA
# DNA 1: CAATCTGAATTCCGGTCTCCC
# DNA 2: TGGTGGCTACGACGGGATT
# B2: GUGAGCG (DNA:RNA)
# RNA: GGGAGACCGGAAUUCAGAUUGUCCGUGAGCGUUAAAUCCCGUCGUAGCCACCA
# DNA 1: CAATCTGAATTCCGGTCTCCC
# DNA 2: TGGTGGCTACGACGGGATT
# B3: UACGACC (DNA:RNA)
# RNA: B1 RNA with A25U, C26A, A27C, C29A, G30C
# DNA 1: CAATCTGAATTCCGGTCTCCC
# DNA 2: TGGTGGCTACGACGGGATT
# B4: CUCGUAC (DNA:RNA)
# RNA: B1 RNA with A25C, C26U, A27C, C29U, G30A
# DNA 1: CAATCTGAATTCCGGTCTCCC
# DNA 2: TGGTGGCTACGACGGGATT
# B5: AGCGUGA (DNA:RNA)
# RNA: B1 RNA with C26G, A27C, C29U, C31A
# DNA 1: CAATCTGAATTCCGGTCTCCC
# DNA 2: TGGTGGCTACGACGGGATT
# B6: AUUUCAU (DNA:RNA)
# RNA: B1 RNA with C26U, A27U, G28U, G30A, C31U
# DNA 1: CAATCTGAATTCCGGTCTCCC
# DNA 2: TGGTGGCTACGACGGGATT
# B7: AGGUGCA (DNA:RNA)
# RNA: B2 RNA with G25A, U26G, A28U, G31A
# DNA 1: CAATCTGAATTCCGGTCTCCC
# DNA 2: TGGTGGCTACGACGGGATT
# B8: UGUGAAC (DNA:RNA)
# RNA: B1 RNA with A25U, C26G, A27U, C29A, G30A
# DNA 1: CAATCTGAATTCCGGTCTCCC
# DNA 2: TGGTGGCTACGACGGGATT
# B9: CGGCUUG (DNA:RNA)
# RNA: B2 RNA with G25C, U26G, A28C, G29U, C30U
# DNA 1: CAATCTGAATTCCGGTCTCCC
# DNA 2: TGGTGGCTACGACGGGATT
# B10: CGUUUCG (DNA:RNA)
# RNA: B2 RNA with G25C, U26G, G27U, A28U, G29U
# DNA 1: CAATCTGAATTCCGGTCTCCC
# DNA 2: TGGTGGCTACGACGGGATT
# B11: GCCUGGC (DNA:RNA)
# RNA: B1 RNA with A25G, A27C, G28U, C29G
# DNA 1: CAATCTGAATTCCGGTCTCCC
# DNA 2: TGGTGGCTACGACGGGATT
# B12: UCGGACU (DNA:RNA)
# RNA: B1 RNA with A25U, A27G, C29A, G30C, C31U
# DNA 1: CAATCTGAATTCCGGTCTCCC
# DNA 2: TGGTGGCTACGACGGGATT
# B13: UCGUCAU (DNA:RNA)
# RNA: B1 RNA with A25U, A27G, G28U, G30A, C31U
# DNA 1: CAATCTGAATTCCGGTCTCCC
# DNA 2: TGGTGGCTACGACGGGATT
# B14: AAUGCUA (DNA:RNA)
# RNA: B1 RNA with C26A, A27U, G30U, C31A
# DNA 1: CAATCTGAATTCCGGTCTCCC
# DNA 2: TGGTGGCTACGACGGGATT
# B15: AUAUAAG (DNA:RNA)
# RNA: B1 RNA with C26U, G28U, C29A, G30A, C31G
# DNA 1: CAATCTGAATTCCGGTCTCCC
# DNA 2: TGGTGGCTACGACGGGATT
# B16: GGUAGAA (DNA:RNA)
# RNA: B2 RNA with U26G, G27U, C30A, G31A
# DNA 1: CAATCTGAATTCCGGTCTCCC
# DNA 2: TGGTGGCTACGACGGGATT
# B17: CAUAGAC (DNA:RNA)
# RNA: B2 RNA with G25C, U26A, G27U, C30A, G31C
# DNA 1: CAATCTGAATTCCGGTCTCCC
# DNA 2: TGGTGGCTACGACGGGATT
# B18: CAUAUGU (DNA:RNA)
# RNA: B1 RNA with A25C, C26A, A27U, G28A, C29U, C31U
# DNA 1: CAATCTGAATTCCGGTCTCCC
# DNA 2: TGGTGGCTACGACGGGATT
# B19: AAAUCAU (DNA:RNA)
# RNA: B1 RNA with C26A, G28U, G30A, C31U
# DNA 1: CAATCTGAATTCCGGTCTCCC
# DNA 2: TGGTGGCTACGACGGGATT
# B20: GUGGCGA (DNA:RNA)
# RNA: B1 RNA with A25G, C26U, A27G, C31A
# DNA 1: CAATCTGAATTCCGGTCTCCC
# DNA 2: TGGTGGCTACGACGGGATT
# B21: AGGUUAC (DNA:RNA)
# RNA: B1 RNA with C26G, A27G, G28U, C29U, G30A
# DNA 1: CAATCTGAATTCCGGTCTCCC
# DNA 2: TGGTGGCTACGACGGGATT
# B22: UAUACCA (DNA:RNA)
# RNA: B2 RNA with G25U, U26A, G27U, G29C, G31A
# DNA 1: CAATCTGAATTCCGGTCTCCC
# DNA 2: TGGTGGCTACGACGGGATT
# B23: UAGGUCG (DNA:RNA)
# RNA: B2 RNA with G25U, U26A, A28G, G29U
# DNA 1: CAATCTGAATTCCGGTCTCCC
# DNA 2: TGGTGGCTACGACGGGATT
# B24: AGGGCCU (DNA:RNA)
# RNA: B1 RNA with C26G, A27G, G30C, C31U
# DNA 1: CAATCTGAATTCCGGTCTCCC
# DNA 2: TGGTGGCTACGACGGGATT
# B25: UGAGAGA (DNA:RNA)
# RNA: B1 RNA with A25U, C26G, C29A, C31A
# DNA 1: CAATCTGAATTCCGGTCTCCC
# DNA 2: TGGTGGCTACGACGGGATT
# B26: AUCUCAA (DNA:RNA)
# RNA: B1 RNA with C26U, A27C, G28U, G30A, C31A
# DNA 1: CAATCTGAATTCCGGTCTCCC
# DNA 2: TGGTGGCTACGACGGGATT
# B27: AAUCUUC (DNA:RNA)
# RNA: B1 RNA with C26A, A27U, G28C, C29U, G30U
# DNA 1: CAATCTGAATTCCGGTCTCCC
# DNA 2: TGGTGGCTACGACGGGATT
# B28: CGAGGGA (DNA:RNA)
# RNA: B1 RNA with A25C, C26G, C29G, C31A
# DNA 1: CAATCTGAATTCCGGTCTCCC
# DNA 2: TGGTGGCTACGACGGGATT
# B29: GGGCAAU (DNA:RNA)
# RNA: B2 RNA with U26G, A28C, G29A, C30A, G31U
# DNA 1: CAATCTGAATTCCGGTCTCCC
# DNA 2: TGGTGGCTACGACGGGATT
# B30: CGUCUCU (DNA:RNA)
# RNA: B2 RNA with G25C, U26G, G27U, A28C, G29U, G31U
# DNA 1: CAATCTGAATTCCGGTCTCCC
# DNA 2: TGGTGGCTACGACGGGATT
# B31: UCAUCUU (DNA:RNA)
# RNA: B1 RNA with A25U, G28U, G30U, C31U
# DNA 1: CAATCTGAATTCCGGTCTCCC
# DNA 2: TGGTGGCTACGACGGGATT
# Molecular target: T1, RBFOX1 RRM RbFoxmut (Fox-RRM*) (Homo sapiens, UniProt Q9NWB1 109-208, R118D;E147R;N151S;E152T)
# T1 sequence: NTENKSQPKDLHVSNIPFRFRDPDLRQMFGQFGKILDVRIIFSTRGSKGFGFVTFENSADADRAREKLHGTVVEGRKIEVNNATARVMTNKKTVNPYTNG
# Assay: EMSA; HiTS-Eq, 1 nM pool, 10 min; buffer printed only for the single-RNA assays: 10 mM Tris pH 7.5, 150 mM NaCl, 3.4 mM EDTA, 0.001% NP-40, 30 C
# Conditions: tags: His6 N-terminal (pET28a); label: 5' 32P
# In short: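 A pool of RNA with 7 randomized nucleotides, 5′-radiolabelled and with DNA-annealed flanks, was equilibrated at 1 nM for 10 min in 50 µL with purified RbFox RRM, wild type or mutant, across increasing protein concentrations. Free RNA was separated by 8% native PAGE, excised, reverse-transcribed, barcoded by PCR and sequenced. Relative association constants were obtained from read-count changes of each RNA species versus the control reaction and normalised to the cognate motif.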
row,Binder,binding signal
1,B1,0.0911 KA relative to UGCAUGU
2,B2,0.195 KA relative to UGCAUGU
3,B3,0.0802 KA relative to UGCAUGU
4,B4,0.13 KA relative to UGCAUGU
5,B5,0.106 KA relative to UGCAUGU
6,B6,0.12 KA relative to UGCAUGU
7,B7,0.21 KA relative to UGCAUGU
8,B8,0.112 KA relative to UGCAUGU
9,B9,0.431 KA relative to UGCAUGU
10,B10,0.17 KA relative to UGCAUGU
11,B11,0.161 KA relative to UGCAUGU
12,B12,0.0516 KA relative to UGCAUGU
13,B13,0.0967 KA relative to UGCAUGU
14,B14,0.115 KA relative to UGCAUGU
15,B15,0.155 KA relative to UGCAUGU
16,B16,0.0914 KA relative to UGCAUGU

row,Binder,binding signal
1,B17,0.0851 KA relative to UGCAUGU
2,B18,0.149 KA relative to UGCAUGU
3,B19,0.08 KA relative to UGCAUGU
4,B20,0.116 KA relative to UGCAUGU
5,B21,0.104 KA relative to UGCAUGU
6,B22,0.0844 KA relative to UGCAUGU
7,B23,0.149 KA relative to UGCAUGU
8,B24,0.0732 KA relative to UGCAUGU
9,B25,0.0993 KA relative to UGCAUGU
10,B26,0.0984 KA relative to UGCAUGU
11,B27,0.0781 KA relative to UGCAUGU
12,B28,0.0693 KA relative to UGCAUGU
13,B29,0.0601 KA relative to UGCAUGU
14,B30,0.0521 KA relative to UGCAUGU
15,B31,0.0764 KA relative to UGCAUGU
